# According to PubChem BioAssay AID652104 (National Center for Advancing Translational Sciences (NCATS), 2013):
# In all, about 410,000 compounds went through this assay and about 7,200 (1.8%) were called active. Inconclusive results, whose numbers are uncertain, are shown with a selection of clear calls. Calls follow the shape of the dose curve; as a rule, active = well fitted activation curve with a large enough effect; inconclusive = small, poorly fitted or top-dose-only effect, or another doubt; inactive = no such curve, though single readings can be large or run the other way. Potencies of inconclusive entries are left out as doubtful fits.
# Test: qHTS of TDP-43 Inhibitors; also: nearly all actives have a fitted effect of over 50% in size; as to growth rescue (activation): % of control where 0% means no effect
# Conditions: TDP-43 expressing yeast growth rescue, BacTiter-Glo, 24 h; growth rescue (activation): at 46.1 µM (top of the series) unless noted
# In short: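 Cell-based yeast growth screen: TDP-43 expression induced in galactose, inoculum OD600=0.02 after raffinose pregrowth to mid-log. Read-out BacTiter-Glo luminescence at 24 hr, 30 deg C; inhibition of toxicity seen as signal increase.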
# Potency is read from the fitted curve at half-maximal effect; tags tell the direction and shape of the fitted curve.
SMILES,Potency,growth rescue (activation)
CCOc1ccc(-c2nc(N)ncc2Oc2ccc(OC)cc2)c(O)c1,"inconclusive [activator, partial curve]",
CCc1ccccc1Nc1ncnc2c1cnn2-c1ccc(C)cc1C,"inconclusive [activator, partial curve]",
CSc1nc(N)n2nc(C)cc2n1,inactive,
COc1ccc(C(=O)Nc2nnc(S(=O)(=O)N(C)c3ccc(C)cc3)s2)cc1,inactive,
CCc1cc(=O)oc2c(C)c(OCC(=O)N3CCCc4ccccc43)ccc12,"inconclusive [activator, single point]",
Cc1cccc(OCC(=O)N2CCN(c3nnc(-c4ccccc4)c4ccccc34)CC2)c1,active: 25.1 µM,
COC(=O)c1noc(C)c1-c1ccnn1C(=O)c1ccc(C)cc1,"inconclusive [activator, partial curve]",
CCOC(=O)C1CCN(C(=O)c2c(C)nn(-c3ccc(F)cc3)c2-n2cccc2)CC1,"inconclusive [activator, partial curve]",
CCOc1ccccc1N1CCN(Cc2ccc(OC)c(OC)c2)CC1,"inconclusive [activator, partial curve]",
O=C(Nc1ccc2c(c1)OCCO2)N1CCN(c2ccccc2)CC1,"inconclusive [activator, single point]",
O=C(COC(=O)Cc1c(F)cccc1Cl)NCCC1=CCCCC1,"inconclusive [activator, full curve]",
O=C(NC1CCCCC1)C1c2ccccc2OCC(=O)N1Cc1cccnc1 (stereo not given),"inconclusive [activator, single point]",
COc1ccc2c(c1)-c1nc(/N=C/c3cccc(OC)c3O)sc1CC2,"inconclusive [activator, single point]",
Cc1ccc2oc(-c3cc(NC(=O)CC(C)C)ccc3Cl)nc2c1,inactive,
Clc1cccc(-c2nc3nc4ccccc4nc3n2Cc2ccco2)c1,"inconclusive [activator, single point]",
Cc1ccnc2nc(C(=O)Nc3ccc(N4CCOCC4)cc3)nn12,inactive,
CCOc1ccc(NC(=O)CN2CC(c3ccccc3)CC2=O)cc1 (stereo not given),"inconclusive [activator, partial curve]",
Cc1ccc(NC(=S)Nc2ccccn2)c(C)c1,"inconclusive [activator, partial curve]",
Cc1ccc(C(=O)NCc2ccc3c(c2)OCO3)cc1C,"inconclusive [activator, partial curve]",
Cc1onc(-c2ccccc2)c1C(=O)Nc1ccc(OC(C)C)cc1,"inconclusive [activator, single point]",
COc1ccc(CN(C)C(=O)/C=C/c2ccc(S(=O)(=O)N3CCCCCC3)cc2)cc1,"inconclusive [activator, single point]",
O=C(Nc1ccccc1C(=O)N1CCCC1)C1COc2ccccc2O1 (stereo not given),"inconclusive [activator, partial curve]",
Cc1ccc(-n2ncc3c(N4CCN(Cc5ccccc5)CC4)ncnc32)cc1Cl,inactive,
CC(C)c1ccc(NC(=O)C2CCCN2S(=O)(=O)c2ccc3nc(-c4ccccc4)[nH]c3c2)cc1 (stereo not given),inactive,

SMILES,Potency,growth rescue (activation)
CC(=O)N1CCc2cc(S(=O)(=O)NCC(=O)NCc3ccccc3Cl)ccc21,inactive,
CSc1ccc(C(=O)Nc2cc(S(=O)(=O)N3CCOCC3)ccc2N2CCOCC2)cc1[N+](=O)[O-],inactive,
O=C(COCc1cc(-c2cccs2)on1)NCc1ccc(F)cc1,"inconclusive [activator, partial curve]",
O=C(CCl)N1N=C(c2cccs2)CC1c1ccco1 (stereo not given),active: 22.4 µM,
COc1cccc(-c2oc3ccc(C)cc3c(=O)c2O)c1,inactive,
O=C(/C=C/c1ccncc1)c1ccc2c(c1)OCCO2,,inactive: -8.08% [at 9.22 µM]
COc1cc(O)c(/C=N/NC(=O)c2ccncc2)c(OC)c1[N+](=O)[O-],"inconclusive [activator, partial curve]",
COc1cc2c(-c3ccc4cc[nH]c4c3)c(-c3ccc(C#N)cc3)oc(=O)c2cc1OC,"inconclusive [activator, partial curve]",
O=C(Nc1nc(-c2ccco2)c(-c2ccco2)s1)C1CCC1,active: 35.5 µM,
O=C(NCc1ccccc1)c1csc2c1CCCC2,"inconclusive [activator, partial curve]",
CCc1ccc(NC(=O)c2sccc2-n2cccc2)cc1,"inconclusive [activator, single point]",
COc1ccc(C(=O)/C=C/c2ccccc2)c(OC)c1,"inconclusive [activator, partial curve]",
CCCc1ccc(NC(=O)C2CCCN(c3cnccn3)C2)cc1 (stereo not given),active: 31.6 µM,
CC(=O)Nn1cnc2c(c1=O)C1(CCCC1)Cc1ccccc1-2,inactive,
Cc1nc(C)c(-c2ccc(SCC(=O)Nc3cccc(C)c3C)nn2)s1,"inconclusive [activator, partial curve]",
CN1CCN(C(c2ccc(C(F)(F)F)cc2)c2ccc3cccnc3c2O)CC1 (stereo not given),,inconclusive: -83.8% [activator]
COc1ccc(S(=O)(=O)NC2CCCCC2)c(C)c1C,"inconclusive [activator, single point]",
Cn1c(C(=O)NCCc2ccccc2)cc2sc(Cl)cc21,"inconclusive [activator, partial curve]",
C[C@H]1CN([C@@H](C)CO)C(=O)CCCn2cc(nn2)CO[C@@H]1CN(C)S(=O)(=O)c1ccc(Cl)cc1,"inconclusive [activator, full curve]",
CCOC(=O)CCCCN(Cc1ccccc1F)S(=O)(=O)c1ccc(F)c(C(=O)Nc2cc(Cl)cc(Cl)c2)c1,inactive,
COc1cc(-c2noc(-c3ccc(NC4CCCC4)c([N+](=O)[O-])c3)n2)cc(OC)c1OC,inactive,
O=C(Nc1cccc2ccccc12)c1ccc([N+](=O)[O-])s1,"inconclusive [activator, partial curve]",
COCCCNC(=O)C[C@H]1C[C@H](C(=O)N(C(C)C)C(C)C)[C@@]2(C)c3[nH]c4cc(CCC(=O)N(C)C)ccc4c3CCN2C1=O,"inconclusive [activator, partial curve, poor fit]",
Brc1ccc(Nc2c3c(nc4ncnn24)CCC3)cc1,active: 12.6 µM,

SMILES,Potency,growth rescue (activation)
CCOCCCNC(=O)c1ccc(Cn2c(=O)c3cccn3c3cccnc32)cc1,"inconclusive [activator, full curve]",
COC(=O)c1c(C(=O)OC)c(-c2ccc(F)cc2)n2c1CSC2,"inconclusive [activator, partial curve]",
Brc1cc(Cc2nnc(-c3ccccc3)o2)c(Br)s1,"inconclusive [activator, single point]",
COC(=O)C1=C(C)N=C2SC(C#N)=C(N)N2C1c1ccc(OC)cc1 (stereo not given),inactive,
COc1ccc(C2C(C(=O)Nc3cccnc3)=C(C)Nc3nc(SCc4ccccc4)nn32)cc1 (stereo not given),inactive,
O=C(Nc1ccc(N2CCN(C(=O)c3ccccc3F)CC2)cc1)c1cncc(Br)c1,"inconclusive [activator, full curve, poor fit]",
O=C(NC1CCSc2ccccc21)c1cc(S(=O)(=O)N2CCOCC2)ccc1Cl (stereo not given),inactive,
C[C@@H]1O[C@@H](OC[C@H]2O[C@@H](Oc3c(-c4ccc(O)c(O)c4)oc4cc(O)cc(O)c4c3=O)[C@H](O)[C@@H](O)[C@@H]2O)[C@H](O)[C@H](O)[C@H]1O,inactive,
COc1cccc(OC)c1C1=CC(=O)C[C@H](c2ccc3c(c2)OCO3)C1,,inconclusive: 173% [activator]
O=C(CC(=O)Nc1ccccn1)Nc1ccccn1,inactive,
C=CCc1cccc2cc(-c3nc4ccc(C(=O)O)cc4[nH]3)c(=O)oc12,inactive,
CCCc1nc2ccccc2c(=O)n1CCc1ccccc1,"inconclusive [activator, single point]",
N#Cc1cc2c(nc1SCC(=O)Nc1nccs1)CCCCC2,inactive,
O=C(Nc1cc(Cl)ccc1N1CCOCC1)C1CC1,"inconclusive [activator, partial curve, poor fit]",
COc1ncnc2c1cnn2-c1ccccc1,"inconclusive [activator, partial curve]",
CC(C)C(C)(C#N)NC(=O)CSc1ncnc2sc(-c3ccccc3)cc12 (stereo not given),"inconclusive [activator, single point]",
CCOC(=O)C1CCN(C(=O)c2ccc3c(c2)sc2nc(-c4ccc(OC)cc4)cn23)CC1,"inconclusive [activator, single point]",
C=CCNc1nc(Nc2ccc(OC)cc2)nc(OCC)n1,"inconclusive [activator, single point]",
N#Cc1ccc(Cl)cc1NC(=O)COC(=O)[C@H](CCC(N)=O)NC(=O)c1ccc(F)cc1,,inconclusive: -30.6% [activator]
C=CCn1c(=O)c(C(=O)Nc2ccccc2O)c(O)c2ccccc21,"inconclusive [activator, full curve]",
Cc1ccc(-c2cc3nccc(-c4cc([N+](=O)[O-])ccc4O)n3n2)cc1,inactive,
COc1cc(/C=N/NC(=O)c2[nH]nc3c2CCc2ccccc2-3)ccc1O,"inconclusive [activator, partial curve]",
